Results: the antibiotic and cytotoxicity screens of Wong et al. (2023)
This is one part of the list.

How the values were obtained:
[1] = tested on: HSkMC (human skeletal muscle cells); assay: cytotoxicity call (relative viability < 0.9); details: 10 µM
[2] = tested on: HepG2; assay: cytotoxicity call (relative viability < 0.9); details: 10 µM
[3] = tested on: S. aureus RN4220; assay: growth inhibition call (relative growth <= 0.2); details: 50 µM

SMILES | cytotoxicity call [1] | cytotoxicity call [2] | growth inhibition call [3]
C[C@H](CO)N1C[C@H](C)[C@H](CN(C)S(C)(=O)=O)Oc2ccc(NC(=O)NC3CCCCC3)cc2CC1=O | inactive | inactive | inactive
C[C@@H]1CN([C@H](C)CO)C(=O)Cc2cc(NC(=O)Nc3ccc(C(F)(F)F)cc3)ccc2O[C@@H]1CN(C)C(=O)Nc1cccc2ccccc12 | inactive | inactive | inactive
C[C@@H]1CN([C@@H](C)CO)C(=O)Cc2cc(NC(=O)Cc3ccccc3)ccc2O[C@@H]1CN(C)Cc1ccc(-c2ccccc2)cc1 | inactive | active | inactive
C[C@H](CO)N1C[C@H](C)[C@@H](CN(C)C(=O)Nc2ccccc2)Oc2c(NC(=O)CCCCCC(=O)Nc3ccccc3N)cccc2C1=O | inactive | inactive | inactive
C[C@@H]1CN([C@H](C)CO)C(=O)c2cc(NC(=O)Nc3cccc4ccccc34)ccc2O[C@@H]1CN(C)S(=O)(=O)c1cccs1 | inactive | inactive | inactive
Cc1noc(C)c1NC(=O)N(C)C[C@H]1Oc2ccc(NC(=O)NC(C)C)cc2CC(=O)N([C@@H](C)CO)C[C@H]1C | inactive | inactive | inactive
O=c1cc(Oc2ccc(O)cc2)oc2cc(O[C@@H]3O[C@H](CO[C@@H]4O[C@H](CO)[C@@H](O)[C@H](O)[C@H]4O)[C@@H](O)[C@H](O)[C@H]3O)cc(O)c12 | inactive | inactive | inactive
Cc1noc(C)c1NC(=O)Nc1cccc2c1O[C@@H](CN(C)C(=O)NC(C)C)[C@@H](C)CN([C@@H](C)CO)C2=O | inactive | inactive | inactive
CC(=O)N(C)C[C@@H]1Oc2ncc(C#C[C@@H](C)O)cc2C(=O)N([C@@H](C)CO)C[C@H]1C | inactive | inactive | inactive
C[C@@H]1CN([C@H](C)CO)C(=O)c2cc(NC(=O)c3ccccc3)ccc2O[C@@H](C)CCCCO[C@@H]1CN(C)S(=O)(=O)c1ccc(Cl)cc1 | inactive | inactive | inactive
C[C@@H]1CCCCO[C@@H](CN(C)C(=O)Nc2ccc(C(F)(F)F)cc2)[C@H](C)CN([C@H](C)CO)C(=O)c2cc(NS(=O)(=O)c3cccs3)ccc2O1 | inactive | active | inactive
O=C(C[C@@H]1C[C@@H]2c3cc(NC(=O)Nc4ccc(C(F)(F)F)cc4)ccc3O[C@@H]2[C@@H](CO)O1)NCc1cc(F)ccc1F | inactive | inactive | inactive
C[C@@H]1CCCCO[C@H](CN(C)C(=O)Nc2ccc(C(F)(F)F)cc2)[C@@H](C)CN([C@H](C)CO)C(=O)c2cc(NS(=O)(=O)c3cn(C)cn3)ccc2O1 | inactive | inactive | inactive
Cn1cnc(S(=O)(=O)N[C@H]2CC[C@@H](CC(=O)Nc3ccccc3)O[C@@H]2CO)c1 | inactive | inactive | inactive
C[C@@H]1CN([C@H](C)CO)C(=O)c2cc(NS(=O)(=O)c3cccs3)ccc2O[C@@H]1CN(C)Cc1ccncc1 | inactive | inactive | inactive
Cc1ccc(S(=O)(=O)Nc2ccc3c(c2)C(=O)N([C@@H](C)CO)C[C@@H](C)[C@@H](CN(C)Cc2ccc4c(c2)OCO4)OCCCC[C@H](C)O3)cc1 | inactive | inactive | inactive
O=C(CN1CCOCC1)N[C@@H]1CC[C@@H](CCNS(=O)(=O)c2ccccc2F)O[C@@H]1CO | inactive | inactive | inactive
Cc1[nH]c2ncnn2c(=O)c1CCC(=O)O | inactive | inactive | inactive
C[C@@H]1CN([C@H](C)CO)C(=O)Cc2cc(NS(C)(=O)=O)ccc2O[C@H]1CN(C)S(=O)(=O)c1cccs1 | inactive | inactive | inactive
C[C@@H]1CN([C@H](C)CO)C(=O)c2cc(NC(=O)Nc3cccc4ccccc34)ccc2O[C@@H](C)CCCCO[C@H]1CN(C)S(=O)(=O)c1cn(C)cn1 | inactive | inactive | inactive
C[C@H]1CN([C@@H](C)CO)C(=O)c2cc(NC(=O)Cn3cnnn3)ccc2O[C@@H]1CN(C)C(=O)NC1CCCCC1 | inactive | inactive | inactive
O=C(N[C@@H]1CC=CC[C@H](CC(=O)N(CCO)Cc2ccccc2)C(=O)N[C@@H](Cc2ccccc2)COC1=O)OCC1c2ccccc2-c2ccccc21 | inactive | inactive | inactive
C[C@H]1CN([C@@H](C)CO)C(=O)Cc2cc(NC(=O)Nc3ccccc3)ccc2O[C@H]1CN(C)Cc1ccc(Oc2ccccc2)cc1 | active | active | inactive
Cc1ccc(S(=O)(=O)N(C)C[C@H]2OCCCC[C@@H](C)Oc3ccc(NS(=O)(=O)c4ccc(Cl)cc4)cc3C(=O)N([C@@H](C)CO)C[C@@H]2C)cc1 | inactive | inactive | inactive
C[C@@H]1CN([C@H](C)CO)C(=O)Cc2cc(NS(=O)(=O)c3ccc(Cl)cc3)ccc2O[C@@H]1CN(C)S(C)(=O)=O | inactive | inactive | inactive
C[C@@H]1CCCCO[C@H](CN(C)CC2CCCCC2)[C@@H](C)CN([C@H](C)CO)C(=O)c2cc(NC(=O)Nc3cccc4ccccc34)ccc2O1 | active | active | inactive

SMILES | cytotoxicity call [1] | cytotoxicity call [2] | growth inhibition call [3]
C=CCNC(=O)[C@H]1[C@@H]2C(=O)O[C@@H](c3ccccc3)[C@@H](c3ccccc3)N2[C@@H](c2ccc(OCCO)cc2)[C@]12C(=O)Nc1ccc(C#Cc3ccc(OC)cc3)cc12 | inactive | inactive | inactive
C[C@@H]1CN([C@H](C)CO)C(=O)c2cccc(NC(=O)c3nc4ccccc4s3)c2O[C@@H]1CN(C)Cc1ccc(C(F)(F)F)cc1 | inactive | inactive | inactive
C[C@@H]1CCCCO[C@@H](CN(C)Cc2ccccc2)[C@H](C)CN([C@@H](C)CO)C(=O)c2cc(NC(=O)Nc3ccc(F)cc3)ccc2O1 | inactive | inactive | inactive
C[C@@H]1CN([C@H](C)CO)C(=O)Cc2cc(NC(=O)Nc3ccccc3)ccc2O[C@@H]1CN(C)Cc1ccc(C(=O)Nc2ccccc2N)cc1 | inactive | active | inactive
C[C@@H]1CCCCO[C@@H](CN(C)S(=O)(=O)c2cccs2)[C@@H](C)CN([C@H](C)CO)C(=O)c2cc(NC(=O)Nc3ccc4c(c3)OCO4)ccc2O1 | inactive | inactive | inactive
C[C@H]1CN([C@@H](C)CO)C(=O)c2cccc(NC(=O)c3ccc(-c4nccs4)cc3)c2O[C@H]1CN(C)S(=O)(=O)c1ccc(Cl)cc1 | inactive | inactive | inactive
C[C@H](CO)N1C[C@H](C)[C@@H](CN(C)C(=O)NC2CCCCC2)Oc2c(NC(=O)Cn3cnnn3)cccc2C1=O | inactive | inactive | inactive
C[C@@H]1CN([C@@H](C)CO)C(=O)c2c(c3ccccc3n2C)-c2ccccc2CO[C@H]1CN(C)Cc1ccc(-c2ccccc2)cc1 | inactive | inactive | inactive
CCCC(=O)Nc1ccc2c(c1)C(=O)N(C)C[C@H](OC)[C@@H](C)CN(S(=O)(=O)c1cn(C)cn1)[C@@H](C)CO2 | inactive | inactive | inactive
C[C@H](CO)N1C[C@H](C)[C@@H](CN(C)C(=O)CCCN(C)C)OCCCC[C@H](C)Oc2ccc(NS(=O)(=O)c3cn(C)cn3)cc2C1=O | inactive | inactive | inactive
C=CCc1ccccc1OCC(O)CNC(C)C.Cl (stereo unspecified) | inactive | active | inactive
C[C@@H]1CCCCO[C@@H](CN(C)S(C)(=O)=O)[C@@H](C)CN([C@H](C)CO)C(=O)c2cc(NC(=O)Nc3cccc4ccccc34)ccc2O1 | inactive | inactive | inactive
C[C@H](CO)N1C[C@H](C)[C@@H](CN(C)Cc2ccccc2)OCCCC[C@H](C)Oc2ccc(NC(=O)c3ccncc3)cc2C1=O | inactive | inactive | inactive
COCCNC(=O)C[C@H]1C[C@H]2c3cc(NS(C)(=O)=O)ccc3O[C@H]2[C@H](CO)O1 | inactive | inactive | inactive
O=C(C[C@H]1C[C@@H]2c3cc(NS(=O)(=O)c4ccc(F)cc4)ccc3O[C@@H]2[C@H](CO)O1)NCc1ccccn1 | inactive | inactive | inactive
COc1cccc(S(=O)(=O)Nc2ccc3c(c2)[C@@H]2C[C@@H](CC(=O)N4CCCCC4)O[C@H](CO)[C@@H]2O3)c1 | inactive | inactive | inactive
CC(=O)c1ccn[nH]1 | inactive | inactive | inactive
C[C@H](CO)N1C[C@H](C)[C@@H](CN(C)Cc2ccc(Oc3ccccc3)cc2)Oc2cc(-c3ccncc3)ccc2S1(=O)=O | inactive | inactive | inactive
O=C(C[C@H]1C[C@H]2c3cc(NS(=O)(=O)c4ccc(F)cc4)ccc3O[C@H]2[C@@H](CO)O1)N1CCOCC1 | inactive | inactive | inactive
Cc1ccc(CCSc2ccc(Cl)c(Cl)c2)cn1 | inactive | active | inactive
COc1cc(-c2coc3cc(O[C@@H]4O[C@H](CO)[C@@H](O)[C@H](O)[C@H]4O)c(OC)c(O)c3c2=O)cc(O)c1OC | inactive | inactive | inactive
C[C@@H]1CN([C@@H](C)CO)C(=O)c2cc(NC(=O)Nc3ccc(F)cc3)ccc2O[C@@H](C)CCCCO[C@H]1CN(C)S(=O)(=O)c1ccccc1 | inactive | inactive | inactive
Cc1noc(C)c1NC(=O)Nc1ccc2c(c1)CC(=O)N([C@@H](C)CO)C[C@H](C)[C@H](CN(C)CC1CC1)O2 | inactive | inactive | inactive
CC(C)NC(=O)N(C)C[C@@H]1OCCCC[C@@H](C)Oc2ccc(NC(=O)Nc3ccc(C(F)(F)F)cc3)cc2C(=O)N([C@@H](C)CO)C[C@H]1C | inactive | inactive | inactive
C[C@@H]1CCCCO[C@H](CN(C)Cc2ccc(C(F)(F)F)cc2)[C@H](C)CN([C@@H](C)CO)C(=O)c2cc(NC(=O)Nc3cccc4ccccc34)ccc2O1 | inactive | inactive | inactive
CS(=O)(=O)CCC/C(=N\OS(=O)(=O)O)S[C@@H]1O[C@H](CO)[C@@H](O)[C@H](O)[C@H]1O | inactive | inactive | inactive
